# Results published in paper PMC9911399, “Two distinct binding modes provide the RNA-binding protein RbFox with extraordinary sequence specificity”.
# Substitutions are numbered along the chain they refer to; changes in the protein carry UniProt numbers. This is one part of the list.
# T1: RBFOX1 RRM RbFoxmut (Fox-RRM*) (Homo sapiens, UniProt Q9NWB1 109-208, R118D;E147R;N151S;E152T)
# T1 sequence: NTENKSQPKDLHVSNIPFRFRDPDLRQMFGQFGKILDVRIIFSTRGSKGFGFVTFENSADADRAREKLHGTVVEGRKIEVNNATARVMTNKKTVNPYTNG
# B1: GGCCACA (DNA:RNA)
# RNA: GGGAGACCGGAAUUCAGAUUGUCCGGCCACAUUAAAUCCCGUCGUAGCCACCA
# DNA 1: CAATCTGAATTCCGGTCTCCC
# DNA 2: TGGTGGCTACGACGGGATT
# B2: AACAUCA (DNA:RNA)
# RNA: B1 RNA with G25A, G26A, C28A, A29U
# DNA 1: CAATCTGAATTCCGGTCTCCC
# DNA 2: TGGTGGCTACGACGGGATT
# B3: UUCUCCC (DNA:RNA)
# RNA: B1 RNA with G25U, G26U, C28U, A29C, A31C
# DNA 1: CAATCTGAATTCCGGTCTCCC
# DNA 2: TGGTGGCTACGACGGGATT
# B4: UUGUCAU (DNA:RNA)
# RNA: GGGAGACCGGAAUUCAGAUUGUCCUUGUCAUUUAAAUCCCGUCGUAGCCACCA
# DNA 1: CAATCTGAATTCCGGTCTCCC
# DNA 2: TGGTGGCTACGACGGGATT
# B5: ACCGGAU (DNA:RNA)
# RNA: B4 RNA with U25A, U26C, G27C, U28G, C29G
# DNA 1: CAATCTGAATTCCGGTCTCCC
# DNA 2: TGGTGGCTACGACGGGATT
# B6: CAAUUAA (DNA:RNA)
# RNA: B4 RNA with U25C, U26A, G27A, C29U, U31A
# DNA 1: CAATCTGAATTCCGGTCTCCC
# DNA 2: TGGTGGCTACGACGGGATT
# B7: UAUUGCG (DNA:RNA)
# RNA: B4 RNA with U26A, G27U, C29G, A30C, U31G
# DNA 1: CAATCTGAATTCCGGTCTCCC
# DNA 2: TGGTGGCTACGACGGGATT
# B8: UUCAGGG (DNA:RNA)
# RNA: B4 RNA with G27C, U28A, C29G, A30G, U31G
# DNA 1: CAATCTGAATTCCGGTCTCCC
# DNA 2: TGGTGGCTACGACGGGATT
# B9: GUGCGUG (DNA:RNA)
# RNA: B1 RNA with G26U, C27G, A29G, C30U, A31G
# DNA 1: CAATCTGAATTCCGGTCTCCC
# DNA 2: TGGTGGCTACGACGGGATT
# B10: GUGAUGU (DNA:RNA)
# RNA: B4 RNA with U25G, U28A, C29U, A30G
# DNA 1: CAATCTGAATTCCGGTCTCCC
# DNA 2: TGGTGGCTACGACGGGATT
# B11: GUUAAUC (DNA:RNA)
# RNA: B1 RNA with G26U, C27U, C28A, C30U, A31C
# DNA 1: CAATCTGAATTCCGGTCTCCC
# DNA 2: TGGTGGCTACGACGGGATT
# B12: ACGGACG (DNA:RNA)
# RNA: B1 RNA with G25A, G26C, C27G, C28G, A31G
# DNA 1: CAATCTGAATTCCGGTCTCCC
# DNA 2: TGGTGGCTACGACGGGATT
# B13: UCCAUUU (DNA:RNA)
# RNA: B4 RNA with U26C, G27C, U28A, C29U, A30U
# DNA 1: CAATCTGAATTCCGGTCTCCC
# DNA 2: TGGTGGCTACGACGGGATT
# B14: CCGAGCG (DNA:RNA)
# RNA: B1 RNA with G25C, G26C, C27G, C28A, A29G, A31G
# DNA 1: CAATCTGAATTCCGGTCTCCC
# DNA 2: TGGTGGCTACGACGGGATT
# B15: CCGCGCA (DNA:RNA)
# RNA: B1 RNA with G25C, G26C, C27G, A29G
# DNA 1: CAATCTGAATTCCGGTCTCCC
# DNA 2: TGGTGGCTACGACGGGATT
# B16: UGAACAU (DNA:RNA)
# RNA: B4 RNA with U26G, G27A, U28A
# DNA 1: CAATCTGAATTCCGGTCTCCC
# DNA 2: TGGTGGCTACGACGGGATT
# B17: UUCGAUG (DNA:RNA)
# RNA: B1 RNA with G25U, G26U, C28G, C30U, A31G
# DNA 1: CAATCTGAATTCCGGTCTCCC
# DNA 2: TGGTGGCTACGACGGGATT
# B18: GUGCUUU (DNA:RNA)
# RNA: B4 RNA with U25G, U28C, C29U, A30U
# DNA 1: CAATCTGAATTCCGGTCTCCC
# DNA 2: TGGTGGCTACGACGGGATT
# B19: AUCAACU (DNA:RNA)
# RNA: B1 RNA with G25A, G26U, C28A, A31U
# DNA 1: CAATCTGAATTCCGGTCTCCC
# DNA 2: TGGTGGCTACGACGGGATT
# B20: GGCACAG (DNA:RNA)
# RNA: B1 RNA with C28A, A29C, C30A, A31G
# DNA 1: CAATCTGAATTCCGGTCTCCC
# DNA 2: TGGTGGCTACGACGGGATT
# B21: AAAAAAA (DNA:RNA)
# RNA: B1 RNA with G25A, G26A, C27A, C28A, C30A
# DNA 1: CAATCTGAATTCCGGTCTCCC
# DNA 2: TGGTGGCTACGACGGGATT
# B22: UUGCCCC (DNA:RNA)
# RNA: B4 RNA with U28C, A30C, U31C
# DNA 1: CAATCTGAATTCCGGTCTCCC
# DNA 2: TGGTGGCTACGACGGGATT
# B23: CAAAGGA (DNA:RNA)
# RNA: B1 RNA with G25C, G26A, C27A, C28A, A29G, C30G
# DNA 1: CAATCTGAATTCCGGTCTCCC
# DNA 2: TGGTGGCTACGACGGGATT
# B24: GUAUCAG (DNA:RNA)
# RNA: B4 RNA with U25G, G27A, U31G
# DNA 1: CAATCTGAATTCCGGTCTCCC
# DNA 2: TGGTGGCTACGACGGGATT
# B25: GGCCUAC (DNA:RNA)
# RNA: B1 RNA with A29U, C30A, A31C
# DNA 1: CAATCTGAATTCCGGTCTCCC
# DNA 2: TGGTGGCTACGACGGGATT
# B26: CGAGUCC (DNA:RNA)
# RNA: B1 RNA with G25C, C27A, C28G, A29U, A31C
# DNA 1: CAATCTGAATTCCGGTCTCCC
# DNA 2: TGGTGGCTACGACGGGATT
# B27: UCUGUAA (DNA:RNA)
# RNA: B4 RNA with U26C, G27U, U28G, C29U, U31A
# DNA 1: CAATCTGAATTCCGGTCTCCC
# DNA 2: TGGTGGCTACGACGGGATT
# B28: AGCCCCG (DNA:RNA)
# RNA: B1 RNA with G25A, A29C, A31G
# DNA 1: CAATCTGAATTCCGGTCTCCC
# DNA 2: TGGTGGCTACGACGGGATT
# B29: AUACUGA (DNA:RNA)
# RNA: B1 RNA with G25A, G26U, C27A, A29U, C30G
# DNA 1: CAATCTGAATTCCGGTCTCCC
# DNA 2: TGGTGGCTACGACGGGATT
# B30: AUGCUGG (DNA:RNA)
# RNA: B4 RNA with U25A, U28C, C29U, A30G, U31G
# DNA 1: CAATCTGAATTCCGGTCTCCC
# DNA 2: TGGTGGCTACGACGGGATT
# B31: AACUUCU (DNA:RNA)
# RNA: B1 RNA with G25A, G26A, C28U, A29U, A31U
# DNA 1: CAATCTGAATTCCGGTCTCCC
# DNA 2: TGGTGGCTACGACGGGATT
# Target: T1, RBFOX1 RRM RbFoxmut (Fox-RRM*)
# Assay: EMSA; HiTS-Eq, 1 nM pool, 10 min; buffer printed only for the single-RNA assays: 10 mM Tris pH 7.5, 150 mM NaCl, 3.4 mM EDTA, 0.001% NP-40, 30 C
# Conditions: tags: His6 N-terminal (pET28a); label: 5' 32P
# How it was run: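 Purified RbFox RRM, wild type or mutant, was incubated for 10 min in 50 µL with 1 nM of a 5′-radiolabelled RNA pool carrying 7 randomized nucleotides, whose flanks were annealed to DNA oligonucleotides, over a series of increasing protein concentrations. Unbound RNA was resolved on 8% native PAGE, cut out, reverse-transcribed, barcoded by PCR and sequenced on an Illumina HiSeq 2500. Relative association constants were derived from changes in read counts for each RNA species versus the control reaction and normalised to the cognate motif.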
row,Binder,binding signal
1,B1,0.0676 KA relative to UGCAUGU
2,B2,0.0831 KA relative to UGCAUGU
3,B3,0.0686 KA relative to UGCAUGU
4,B4,0.11 KA relative to UGCAUGU
5,B5,0.06 KA relative to UGCAUGU
6,B6,0.0998 KA relative to UGCAUGU
7,B7,0.133 KA relative to UGCAUGU
8,B8,0.0818 KA relative to UGCAUGU
9,B9,0.278 KA relative to UGCAUGU
10,B10,0.25 KA relative to UGCAUGU
11,B11,0.0571 KA relative to UGCAUGU
12,B12,0.0554 KA relative to UGCAUGU
13,B13,0.0801 KA relative to UGCAUGU
14,B14,0.124 KA relative to UGCAUGU
15,B15,0.164 KA relative to UGCAUGU
16,B16,0.0671 KA relative to UGCAUGU

row,Binder,binding signal
1,B17,0.0892 KA relative to UGCAUGU
2,B18,0.108 KA relative to UGCAUGU
3,B19,0.0766 KA relative to UGCAUGU
4,B20,0.0846 KA relative to UGCAUGU
5,B21,0.0827 KA relative to UGCAUGU
6,B22,0.0741 KA relative to UGCAUGU
7,B23,0.0585 KA relative to UGCAUGU
8,B24,0.229 KA relative to UGCAUGU
9,B25,0.0604 KA relative to UGCAUGU
10,B26,0.101 KA relative to UGCAUGU
11,B27,0.13 KA relative to UGCAUGU
12,B28,0.0812 KA relative to UGCAUGU
13,B29,0.0711 KA relative to UGCAUGU
14,B30,0.126 KA relative to UGCAUGU
15,B31,0.0625 KA relative to UGCAUGU
